# Data as given in the supplement of paper PMC8728848.
# Some of the results follow.
# Assays:
# Assay in all cases: glycan array binding signal (z-score within array); higher = stronger binding
# Details in all cases: glycan notation: IUPAC condensed, linker removed
# [1] = molecular target: Neu5Ac(a2-3)Gal(b1-3)[Fuc(a1-4)]GlcNAc
# Method in brief: (§1)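 Glycan array binding is given as a within-array Z-score, which can be read as non-binding when negative. The arrays, 3228 of them, came from the Consortium for Functional Glycomics database and were retained only where the protein sequence was available. Z-scores were averaged across arrays of the same protein sequence at different concentrations or buffers and across linkers.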
# [2] = molecular target: Neu5Ac(a2-3)Gal(b1-3)[Fuc(a1-4)]GlcNAc(b1-3)Gal(b1-3)[Fuc(a1-4)]GlcNAc
# Method in brief: as §1
# [3] = molecular target: Neu5Ac(a2-3)Gal(b1-3)[Fuc(a1-4)]GlcNAc(b1-3)Gal(b1-4)[Fuc(a1-3)]GlcNAc
# Method in brief: as §1
# [4] = molecular target: Neu5Ac(a2-3)Gal(b1-3)[GlcNAc(b1-6)]GalNAc
# Method in brief: as §1
# [5] = molecular target: Neu5Ac(a2-3)Gal(b1-3)[Neu5Ac(a2-3)Gal(b1-4)]GlcNAc
# Method in brief: as §1
# [6] = molecular target: Neu5Ac(a2-3)Gal(b1-3)[Neu5Ac(a2-6)]GalNAc
# Method in brief: as §1
# [7] = molecular target: Neu5Ac(a2-3)Gal(b1-3)[Neu5Ac(a2-6)]GlcNAc(b1-3)[Fuc(a1-3)[Gal(b1-4)]GlcNAc(b1-6)]Gal(b1-4)Glc
# Method in brief: as §1
# [8] = molecular target: Neu5Ac(a2-3)Gal(b1-3)]Neu5Ac(a2-3)Gal(b1-4)]GlcNAc
# Method in brief: as §1
# Neu5Ac(a2-3)Gal(b1-4)Glc = molecular target: Neu5Ac(a2-3)Gal(b1-4)Glc
# Method in brief: as §1
# [9] = molecular target: Neu5Ac(a2-3)Gal(b1-4)GlcNAc
# Method in brief: as §1
# [10] = molecular target: Neu5Ac(a2-3)Gal(b1-4)GlcNAc(b1-2)Man
# Method in brief: as §1
# [11] = molecular target: Neu5Ac(a2-3)Gal(b1-4)GlcNAc(b1-2)Man(a1-3)[GlcNAc(b1-2)Man(b1-4)GlcNAc(b1-2)Man(a1-6)]Man(b1-4)GlcNAc(b1-4)GlcNAc
# Method in brief: as §1
# [12] = molecular target: Neu5Ac(a2-3)Gal(b1-4)GlcNAc(b1-2)Man(a1-3)[GlcNAc(b1-4)][Neu5Ac(a2-3)Gal(b1-4)GlcNAc(b1-2)Man(a1-6)]Man(b1-4)GlcNAc(b1-4)GlcNAc
# Method in brief: as §1
# [13] = molecular target: Neu5Ac(a2-3)Gal(b1-4)GlcNAc(b1-2)Man(a1-3)[Neu5Ac(a2-3)Gal(b1-4)GlcNAc(b1-2)Man(a1-6)]Man(b1-4)GlcNAc(b1-4)GlcNAc
# Method in brief: as §1
# [14] = molecular target: Neu5Ac(a2-3)Gal(b1-4)GlcNAc(b1-2)Man(a1-3)[Neu5Ac(a2-3)Gal(b1-4)GlcNAc(b1-2)Man(a1-6)]Man(b1-4)GlcNAc(b1-4)[Fuc(a1-6)]GlcNAc
# Method in brief: as §1
# [15] = molecular target: Neu5Ac(a2-3)Gal(b1-4)GlcNAc(b1-2)Man(a1-3)[Neu5Ac(a2-6)Gal(b1-4)GlcNAc(b1-2)Man(a1-6)]Man(b1-4)GlcNAc(b1-4)GlcNAc
# Method in brief: as §1
# [16] = molecular target: Neu5Ac(a2-3)Gal(b1-4)GlcNAc(b1-2)[Neu5Ac(a2-3)Gal(b1-4)GlcNAc(b1-4)]Man(a1-3)[GlcNAc(b1-4)][Neu5Ac(a2-3)Gal(b1-4)GlcNAc(b1-2)[Neu5Ac(a2-3)Gal(b1-4)GlcNAc(b1-6)]Man(a1-6)]Man(b1-4)GlcNAc(b1-4)GlcNAc
# Method in brief: as §1
# [17] = molecular target: Neu5Ac(a2-3)Gal(b1-4)GlcNAc(b1-2)[Neu5Ac(a2-3)Gal(b1-4)GlcNAc(b1-4)]Man(a1-3)[GlcNAc(b1-4)][Neu5Ac(a2-3)Gal(b1-4)GlcNAc(b1-4)Man(a1-6)]Man(b1-4)GlcNAc(b1-4)GlcNAc
# Method in brief: as §1
# [18] = molecular target: Neu5Ac(a2-3)Gal(b1-4)GlcNAc(b1-2)[Neu5Ac(a2-3)Gal(b1-4)GlcNAc(b1-6)]Man(a1-6)[Neu5Ac(a2-3)Gal(b1-4)GlcNAc(b1-2)Man(a1-3)]Man(b1-4)GlcNAc(b1-4)GlcNAc
# Method in brief: as §1
# [19] = molecular target: Neu5Ac(a2-3)Gal(b1-4)GlcNAc(b1-2)[Neu5Ac(a2-3)Gal(b1-4)GlcNAc(b1-6)]Man(a1-6)[Neu5Ac(a2-3)Gal(b1-4)GlcNAc(b1-2)Man(a1-3)][GlcNAc(b1-4)]Man(b1-4)GlcNAc(b1-4)GlcNAc
# Method in brief: as §1
# [20] = molecular target: Neu5Ac(a2-3)Gal(b1-4)GlcNAc(b1-3)Gal
# Method in brief: as §1
# [21] = molecular target: Neu5Ac(a2-3)Gal(b1-4)GlcNAc(b1-3)Gal(b1-3)GlcNAc
# Method in brief: as §1
# [22] = molecular target: Neu5Ac(a2-3)Gal(b1-4)GlcNAc(b1-3)Gal(b1-4)GlcNAc
# Method in brief: as §1
binder,measurement,setting,value
"HPA (Helix pomatia), Q2F1K8 (protein) MQAFYSGLLLLCVVAFAAAQRVQSGKIDCGNDAGWAKVPSDDPGRDNTRELAKNITFASPYCRPPVVLLSITQLDVEQSQNLRVIARLYSVSPTGFKASCYTWHNTKVYSMSISWISIENY",glycan array binding signal (z-score),[1],-0.359
same,glycan array binding signal (z-score),[2],-0.09
same,glycan array binding signal (z-score),[3],-0.105
same,glycan array binding signal (z-score),[4],-0.351
same,glycan array binding signal (z-score),[5],-0.415
same,glycan array binding signal (z-score),[6],-0.163
same,glycan array binding signal (z-score),[7],-0.215
same,glycan array binding signal (z-score),[8],-0.307
same,glycan array binding signal (z-score),Neu5Ac(a2-3)Gal(b1-4)Glc,-0.004
same,glycan array binding signal (z-score),[9],-0.167
same,glycan array binding signal (z-score),[10],-0.116
same,glycan array binding signal (z-score),[11],-0.501
same,glycan array binding signal (z-score),[12],-0.3
same,glycan array binding signal (z-score),[13],-0.287
same,glycan array binding signal (z-score),[14],-0.312
same,glycan array binding signal (z-score),[15],-0.303
same,glycan array binding signal (z-score),[16],-0.275
same,glycan array binding signal (z-score),[17],-0.301
same,glycan array binding signal (z-score),[18],-0.227
same,glycan array binding signal (z-score),[19],-0.361
same,glycan array binding signal (z-score),[20],-0.425
same,glycan array binding signal (z-score),[21],-0.259
same,glycan array binding signal (z-score),[22],-0.335
